Data from publication PMC9562873.
Results are given in words; binding and its absence hold for the method and conditions named. In cells and extracts the contact can be indirect. Some binding calls cover weakened binding; strength is not graded here. For some assays here: Tags and fused reporters may be left off the sequences shown.

How the values were obtained:
[1] = target: T1, PGC-1β LAALL mutant (LRELL → LAALL in motif #3) (human) (UniProt Q86YN6); assay: co-IP; HCT116 (and T84 for wild type and AREAA) cells expressing N-terminally 3xFLAG twin Strep2 tagged PGC-1β, wild type or mutant, from the AAVS1 locus; precipitated by the FLAG or the Strep2 epitopes in separate experiments, eluted with triple FLAG peptide or 50 mM biotin; eluates immunoblotted for PGC-1β and ERRα
T1 sequence: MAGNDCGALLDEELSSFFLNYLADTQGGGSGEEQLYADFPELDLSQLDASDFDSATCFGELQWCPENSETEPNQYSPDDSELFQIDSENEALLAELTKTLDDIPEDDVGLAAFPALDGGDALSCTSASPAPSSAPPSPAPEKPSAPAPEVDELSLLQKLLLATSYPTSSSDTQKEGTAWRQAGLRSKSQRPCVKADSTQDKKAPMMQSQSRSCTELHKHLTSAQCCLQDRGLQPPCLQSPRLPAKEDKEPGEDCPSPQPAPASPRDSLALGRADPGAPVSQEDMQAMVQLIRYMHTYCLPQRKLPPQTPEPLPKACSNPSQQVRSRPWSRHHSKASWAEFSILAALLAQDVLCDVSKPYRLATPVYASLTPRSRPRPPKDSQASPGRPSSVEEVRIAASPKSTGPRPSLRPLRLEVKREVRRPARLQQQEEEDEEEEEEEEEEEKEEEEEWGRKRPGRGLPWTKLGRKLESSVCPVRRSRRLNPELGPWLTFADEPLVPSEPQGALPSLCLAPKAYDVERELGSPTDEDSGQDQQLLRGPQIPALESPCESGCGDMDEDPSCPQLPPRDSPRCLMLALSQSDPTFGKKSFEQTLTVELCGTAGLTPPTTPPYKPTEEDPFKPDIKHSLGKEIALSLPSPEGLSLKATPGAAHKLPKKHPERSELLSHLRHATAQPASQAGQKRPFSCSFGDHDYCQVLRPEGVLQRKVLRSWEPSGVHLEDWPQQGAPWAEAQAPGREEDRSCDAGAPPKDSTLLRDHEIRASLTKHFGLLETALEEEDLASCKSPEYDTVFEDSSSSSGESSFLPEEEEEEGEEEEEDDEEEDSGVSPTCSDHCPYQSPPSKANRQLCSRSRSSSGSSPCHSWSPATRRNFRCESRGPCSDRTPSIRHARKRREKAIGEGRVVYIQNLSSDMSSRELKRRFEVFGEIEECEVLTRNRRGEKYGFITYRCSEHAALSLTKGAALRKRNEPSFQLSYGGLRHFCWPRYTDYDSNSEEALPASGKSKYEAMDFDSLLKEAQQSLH

[2] = target: T2, PGC-1β triple mutant, Only LxxLL motif #2 (motifs 1, 3 and 4 inactivated) (human) (UniProt Q86YN6); assay: as above
T2 sequence: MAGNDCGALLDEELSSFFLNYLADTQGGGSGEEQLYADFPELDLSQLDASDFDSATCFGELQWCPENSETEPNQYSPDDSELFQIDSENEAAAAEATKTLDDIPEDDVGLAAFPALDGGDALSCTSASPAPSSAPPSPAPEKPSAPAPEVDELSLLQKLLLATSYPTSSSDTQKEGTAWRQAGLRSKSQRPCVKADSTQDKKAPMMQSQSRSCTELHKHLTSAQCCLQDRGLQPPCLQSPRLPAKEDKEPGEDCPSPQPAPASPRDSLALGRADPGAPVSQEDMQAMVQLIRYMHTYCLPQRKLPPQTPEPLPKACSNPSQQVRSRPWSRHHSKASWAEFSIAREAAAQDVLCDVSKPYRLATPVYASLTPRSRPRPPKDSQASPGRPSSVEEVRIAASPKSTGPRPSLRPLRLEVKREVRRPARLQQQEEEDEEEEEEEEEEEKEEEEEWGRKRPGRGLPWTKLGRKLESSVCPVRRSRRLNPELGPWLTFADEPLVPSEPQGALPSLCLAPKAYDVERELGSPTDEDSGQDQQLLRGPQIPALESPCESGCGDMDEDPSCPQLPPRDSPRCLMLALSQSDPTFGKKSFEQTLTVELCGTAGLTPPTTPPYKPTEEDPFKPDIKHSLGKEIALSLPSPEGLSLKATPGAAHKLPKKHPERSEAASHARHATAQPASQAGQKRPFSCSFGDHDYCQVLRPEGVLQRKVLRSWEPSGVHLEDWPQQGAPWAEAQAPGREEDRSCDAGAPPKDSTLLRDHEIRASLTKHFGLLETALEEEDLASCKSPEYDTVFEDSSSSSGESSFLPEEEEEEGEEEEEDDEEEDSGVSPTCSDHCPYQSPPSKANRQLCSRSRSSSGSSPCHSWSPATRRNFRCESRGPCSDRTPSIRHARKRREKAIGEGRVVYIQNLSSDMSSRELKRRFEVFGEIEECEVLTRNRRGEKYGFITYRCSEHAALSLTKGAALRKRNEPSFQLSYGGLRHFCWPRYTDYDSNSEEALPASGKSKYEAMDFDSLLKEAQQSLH

[3] = target: T3, Wild type dual epitope tagged PGC-1β (N-terminal triple FLAG and twin Strep2), doxycycline inducible (human) (UniProt Q86YN6); assay: as above
T3 sequence: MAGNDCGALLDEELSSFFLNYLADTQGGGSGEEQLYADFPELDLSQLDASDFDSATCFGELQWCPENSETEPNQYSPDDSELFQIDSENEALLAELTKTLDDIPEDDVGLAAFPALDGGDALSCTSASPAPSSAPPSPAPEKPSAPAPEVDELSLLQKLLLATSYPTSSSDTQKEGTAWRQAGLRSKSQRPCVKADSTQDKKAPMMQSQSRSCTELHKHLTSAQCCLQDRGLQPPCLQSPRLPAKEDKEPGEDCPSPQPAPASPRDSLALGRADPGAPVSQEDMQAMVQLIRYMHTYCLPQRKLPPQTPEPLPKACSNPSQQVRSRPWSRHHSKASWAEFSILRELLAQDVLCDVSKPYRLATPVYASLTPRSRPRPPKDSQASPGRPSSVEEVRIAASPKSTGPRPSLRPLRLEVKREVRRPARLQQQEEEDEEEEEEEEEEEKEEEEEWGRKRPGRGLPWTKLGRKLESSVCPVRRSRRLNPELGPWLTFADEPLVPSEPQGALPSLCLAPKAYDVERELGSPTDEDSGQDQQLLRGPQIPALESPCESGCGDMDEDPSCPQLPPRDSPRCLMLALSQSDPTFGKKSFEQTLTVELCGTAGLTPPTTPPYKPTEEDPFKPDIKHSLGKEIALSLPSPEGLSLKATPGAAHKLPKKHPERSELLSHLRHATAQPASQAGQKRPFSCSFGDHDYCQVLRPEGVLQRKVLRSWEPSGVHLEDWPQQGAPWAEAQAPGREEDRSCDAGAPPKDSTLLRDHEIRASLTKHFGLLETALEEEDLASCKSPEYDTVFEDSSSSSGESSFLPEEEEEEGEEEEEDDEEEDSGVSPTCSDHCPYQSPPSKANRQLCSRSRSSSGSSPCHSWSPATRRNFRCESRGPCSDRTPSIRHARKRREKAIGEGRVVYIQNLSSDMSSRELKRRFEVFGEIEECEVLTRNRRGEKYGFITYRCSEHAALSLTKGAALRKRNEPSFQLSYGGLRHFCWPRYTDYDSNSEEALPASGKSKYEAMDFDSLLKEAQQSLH

[4] = target: T4, PGC-1β AREAA mutant (LRELL → AREAA in motif #3) (human) (UniProt Q86YN6); assay: as above
T4 sequence: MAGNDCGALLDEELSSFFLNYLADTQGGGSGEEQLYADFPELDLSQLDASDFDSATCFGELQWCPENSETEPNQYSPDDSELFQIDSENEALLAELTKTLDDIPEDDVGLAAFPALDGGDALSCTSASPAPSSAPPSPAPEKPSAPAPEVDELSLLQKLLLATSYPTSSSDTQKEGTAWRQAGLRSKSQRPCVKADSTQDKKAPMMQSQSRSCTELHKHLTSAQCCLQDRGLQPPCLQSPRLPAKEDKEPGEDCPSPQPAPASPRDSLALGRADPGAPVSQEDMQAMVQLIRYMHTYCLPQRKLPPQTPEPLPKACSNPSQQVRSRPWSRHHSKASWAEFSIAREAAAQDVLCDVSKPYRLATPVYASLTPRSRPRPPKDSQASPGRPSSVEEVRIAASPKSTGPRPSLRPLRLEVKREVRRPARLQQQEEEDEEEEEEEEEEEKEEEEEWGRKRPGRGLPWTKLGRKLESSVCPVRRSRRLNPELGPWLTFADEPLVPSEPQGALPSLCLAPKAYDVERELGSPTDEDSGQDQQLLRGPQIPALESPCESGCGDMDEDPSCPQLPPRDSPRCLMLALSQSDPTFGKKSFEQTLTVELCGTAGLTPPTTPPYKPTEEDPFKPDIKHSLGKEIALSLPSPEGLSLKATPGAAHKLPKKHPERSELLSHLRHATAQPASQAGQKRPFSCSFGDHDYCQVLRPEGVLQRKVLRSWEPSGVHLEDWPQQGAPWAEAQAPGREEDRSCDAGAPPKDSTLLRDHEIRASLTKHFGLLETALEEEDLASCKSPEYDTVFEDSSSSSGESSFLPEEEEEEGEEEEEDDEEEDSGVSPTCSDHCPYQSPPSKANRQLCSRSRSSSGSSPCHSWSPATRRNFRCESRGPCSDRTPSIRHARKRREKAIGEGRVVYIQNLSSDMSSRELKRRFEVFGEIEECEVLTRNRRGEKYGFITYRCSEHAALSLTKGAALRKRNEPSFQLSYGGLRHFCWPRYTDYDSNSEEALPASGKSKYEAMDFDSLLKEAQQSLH

[5] = target: T5, Epitope-tagged endogenous PGC-1β (Peroxisome Proliferator-Activated Receptor Gamma, Coactivator 1 Beta) with C-terminal twin Strep2 and triple FLAG tags (human (endogenous in HCT116)) (UniProt Q86YN6); assay: co-IP; HCT116 cells with epitope-tagged endogenous PGC-1β lysed in RIPA buffer (1% Triton X-100); precipitated overnight at 4 °C on magnetic FLAG beads (eluted with 3X-FLAG peptide) or on MagStrep type3 XT beads (eluted with 50 mM biotin); eluates immunoblotted for PGC-1β and ERRα
T5 sequence: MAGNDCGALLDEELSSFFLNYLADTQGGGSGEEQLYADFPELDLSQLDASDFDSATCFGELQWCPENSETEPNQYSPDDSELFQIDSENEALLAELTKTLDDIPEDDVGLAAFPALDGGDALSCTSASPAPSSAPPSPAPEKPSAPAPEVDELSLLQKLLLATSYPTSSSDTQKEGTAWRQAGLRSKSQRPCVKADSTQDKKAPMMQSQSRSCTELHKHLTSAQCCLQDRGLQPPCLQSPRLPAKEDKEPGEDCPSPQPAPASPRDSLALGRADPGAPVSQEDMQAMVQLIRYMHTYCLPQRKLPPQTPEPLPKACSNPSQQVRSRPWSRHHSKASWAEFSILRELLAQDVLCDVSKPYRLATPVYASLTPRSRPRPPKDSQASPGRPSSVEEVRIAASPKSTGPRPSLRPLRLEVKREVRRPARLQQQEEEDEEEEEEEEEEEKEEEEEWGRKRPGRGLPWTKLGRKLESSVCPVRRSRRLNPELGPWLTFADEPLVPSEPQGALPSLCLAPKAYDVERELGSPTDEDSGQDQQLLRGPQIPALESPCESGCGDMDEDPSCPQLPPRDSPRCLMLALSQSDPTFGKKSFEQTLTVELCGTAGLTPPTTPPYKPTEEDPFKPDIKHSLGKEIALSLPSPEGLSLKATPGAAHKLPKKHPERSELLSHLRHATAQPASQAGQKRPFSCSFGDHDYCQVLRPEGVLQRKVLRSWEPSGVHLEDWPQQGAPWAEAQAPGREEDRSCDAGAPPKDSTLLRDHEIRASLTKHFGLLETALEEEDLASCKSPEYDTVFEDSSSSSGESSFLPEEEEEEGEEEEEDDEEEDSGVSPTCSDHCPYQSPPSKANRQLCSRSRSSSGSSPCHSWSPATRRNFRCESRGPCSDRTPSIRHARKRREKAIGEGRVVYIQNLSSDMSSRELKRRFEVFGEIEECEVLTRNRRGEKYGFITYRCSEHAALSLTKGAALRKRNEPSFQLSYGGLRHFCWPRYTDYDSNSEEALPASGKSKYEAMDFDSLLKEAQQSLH

binding [1]: binds | binding [2]: no binding | binding [3]: binds | binding [4]: no binding | binding [5]: binds
B1: Estrogen-Related Receptor Alpha (ERRα) (protein, UniProt P11474 1-423)
chain: MSSQVVGIEPLYIKAEPASPDSPKGSSETETEPPVALAPGPAPTRCLPGHKEEEDGEGAGPGEQGGGKLVLSSLPKRLCLVCGDVASGYHYGVASCEACKAFFKRTIQGSIEYSCPASNECEITKRRRKACQACRFTKCLRVGMLKEGVRLDRVRGGRQKYKRRPEVDPLPFPGPFPAGPLAVAGGPRKTAAPVNALVSHLLVVEPEKLYAMPDPAGPDGHLPAVATLCDLFDREIVVTISWAKSIPGFSSLSLSDQMSVLQSVWMEVLVLGVAQRSLPLQDELAFAEDLVLDEEGARAAGLGELGAALLQLVRRLQALRLEREEYVLLKALALANSDSVHIEDAEAVEQLREALHEALLEYEAGRAGPGGGAERRRAGRLLLTLPLLRQTAGKVLAHFYGVKLEGKVPMHKLFLEMLEAMMD
